According to PubChem BioAssay AID624417 (National Center for Advancing Translational Sciences (NCATS), 2012):
In all, about 410,000 compounds went through this assay and about 6,400 (1.6%) were called active. This list was built around the results that the source calls inconclusive (neither active nor inactive); the mix of calls is not that of the screen. The call rests on the fitted dose curve; in most records, active means well fitted inhibition curve with a large enough effect; inconclusive means small, poorly fitted or top-dose-only effect; inactive means no such curve, though single readings can be large or run the other way. Potencies beside an inconclusive call are fits to weak or partial responses and may not hold up.

What follows are compounds tested against Glucagon-like peptide 1 receptor (Homo sapiens) (UniProt P43220) (assay: qHTS of GLP-1 Receptor Inverse Agonists (Inhibition Mode)). Settings: HEK293 GLP-1R CRE-luciferase, luminescence, 24 h, GLP-1R form is constitutively active; series mostly up to 38.3 µM.
Method in brief: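 GLP-1R inverse agonism mode: basal reporter luminescence in engineered HEK293 cells measured after one day of compound exposure at 37 deg C, with a 12 min room-temperature detection step.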
Further: nearly all actives have a fitted effect of over 55% in size.
Potency means the concentration at half of the fitted maximal effect; tags describe the fitted curve by direction and shape.

Chain of UniProt P43220 (P43220 whole entry, looked up): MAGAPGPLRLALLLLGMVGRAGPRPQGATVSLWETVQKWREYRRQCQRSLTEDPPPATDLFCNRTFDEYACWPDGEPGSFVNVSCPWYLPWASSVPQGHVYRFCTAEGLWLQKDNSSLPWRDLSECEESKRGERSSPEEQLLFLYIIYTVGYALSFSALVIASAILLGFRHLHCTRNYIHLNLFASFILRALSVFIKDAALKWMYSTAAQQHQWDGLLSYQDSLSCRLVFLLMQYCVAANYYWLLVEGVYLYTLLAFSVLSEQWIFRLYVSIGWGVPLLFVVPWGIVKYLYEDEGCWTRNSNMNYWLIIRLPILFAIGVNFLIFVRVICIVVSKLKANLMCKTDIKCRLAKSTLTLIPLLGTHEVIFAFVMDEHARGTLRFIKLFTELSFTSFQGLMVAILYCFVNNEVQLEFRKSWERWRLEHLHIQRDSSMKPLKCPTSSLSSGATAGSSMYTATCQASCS

Potency, inactive:
CCC(C)NC(=O)Cn1c(=O)n(CCCC(=O)NCc2ccccc2Cl)c(=O)c2ccccc21 (stereo not given), COCc1cc(=O)[nH]c(-c2csc(C)n2)n1, Cc1nc(NCc2ccc3c(c2)OCO3)c2oc3ccccc3c2n1, Cc1cccc(C)c1-n1ncc(C(=O)NC2CCCC2)c1C1CCN(C(=O)OC(C)(C)C)CC1, CN1CCN(C(=O)CCNC(=O)Cn2ccc3ccccc3c2=O)CC1, CC1=CC(c2ccccc2)n2ncnc2N1 (stereo not given), O=C(Cc1cccs1)N/N=C/C(Br)=C/c1ccccc1, CCOC(=O)C1=C(N)Oc2cc(O)ccc2C1c1cccnc1 (stereo not given), COc1ccc(S(=O)(=O)N2CCC3(CC2)CC(=O)c2ccccc2O3)cc1C, O=C(Nc1ccc(Cl)cc1)OCc1cc(-c2ccccc2Cl)on1, C=CCn1c(SCC(=O)Nc2sc(C)c(C)c2C(=O)OCC)nnc1-c1sc(N)nc1C, COc1ccc(C(=O)NCCn2cc(SCC(=O)Nc3ccccc3)c3ccccc32)cc1OC, CN1CCN(S(=O)(=O)c2ccc(NC(=O)Cc3cccs3)cc2)CC1, CN1CCN(CCc2nc3cc(NC(=O)c4ccco4)ccc3n2C)CC1, COc1cc(OC)c(NC(=O)c2c(C)nn(-c3ccc(C)cc3)c2-n2cccc2)cc1Cl, COc1ccc(-c2cc(C(F)(F)F)nc(SCC(=O)NCc3cccs3)n2)cc1, CC1CCN(Cc2cnc(Cl)s2)CC1

Potency, active:
NS(=O)(=O)c1ccc(NC(=S)NCc2ccc(Cl)cc2)cc1 3.98 µM

Potency, inconclusive:
CCc1nc2c(OCCC3CCCCC3)cccn2c1N(C=O)Cc1ccc(OC)cc1 11.2 µM [inhibitor, single point], CC(C)C(OC(=O)c1cc2occc2n1C)C(=O)NCc1ccc2c(c1)OCO2 (stereo not given) 12.6 µM [inhibitor, partial curve, poor fit], COc1cccc(NC(=O)CN2CCN(S(=O)(=O)c3ccc(C(C)C)cc3)CC2)c1 25.1 µM [inhibitor, partial curve, poor fit], Cc1cccc(-n2cc(-c3ccccc3)c3c(=O)[nH]cnc32)c1 22.4 µM [inhibitor, single point], Cc1c(C(=O)NCc2ccccn2)sc(=O)n1Cc1ccc(-c2ccccc2)cc1 28.2 µM [inhibitor, single point], Cc1cccc(C)c1NC(=S)NCc1ccccc1 22.4 µM [inhibitor, single point], CC1(C)OC(=O)C(=NNc2ccc(O)cc2)C(=O)O1 1.78 µM [inhibitor, full curve], Cc1ccccc1NC(=O)c1ccccc1-c1ccccc1 22.4 µM [inhibitor, single point], Nc1c(C(=O)NCC2CCCO2)c2nc3ccccc3nc2n1-c1ccccc1 (stereo not given) 11.2 µM [inhibitor, partial curve, poor fit], CC1Cc2ccccc2N1C(=O)COC(=O)c1ccc(Cl)c(S(=O)(=O)N2CCOCC2)c1 (stereo not given) 20 µM [inhibitor, single point], O=C(NCCc1ccccc1)C1CCCN(S(=O)(=O)c2cccs2)C1 (stereo not given) 15.8 µM [inhibitor, single point], CCOCc1c(C(=O)Nc2ccccc2N2CCN(C)CC2)oc2ccccc12 11.2 µM [inhibitor, single point], COc1nnc(-c2ccc(C)cc2)c2ccccc12 10 µM [inhibitor, single point], O=C(Nc1cccc(NC(=O)c2ccco2)c1)c1cccc(Br)c1 28.2 µM [inhibitor, single point], CCNC(=O)/N=C1/NC(=O)C(C(C)C)O1 (stereo not given) 28.2 µM [inhibitor, single point], N#CC1=C(N)c2ccccc2CC12CCCCC2 20 µM [inhibitor, single point], O=S(=O)(CC(O)COc1ccc(Br)cc1)c1ccccc1 (stereo not given) 10 µM [inhibitor, single point], O=C(CCC(=O)Nc1ccc(Br)cc1)N/N=C/c1ccccc1O 8.91 µM [inhibitor, partial curve, poor fit], CCOc1ccc(NC(=O)C2CCCN(C(=O)NCc3ccccc3)C2)cc1 (stereo not given) 28.2 µM [inhibitor, single point], C=CCN1C(=O)NC(c2ccccc2)(C(F)(F)F)S/C1=C(\C#N)c1nnc(N2CCOCC2)n1-c1ccccc1 (stereo not given) 28.2 µM [inhibitor, single point], O=C(c1ccc2c(c1)CCN2S(=O)(=O)c1ccc(Cl)cc1)N1CCN(c2ccc(F)cc2)CC1 10 µM [inhibitor, partial curve, poor fit], CCOC(=O)N1CCN(c2ccc(S(=O)(=O)N(Cc3ccccc3)Cc3ccccc3)cn2)CC1 4.47 µM [inhibitor, full curve], CC(=O)N1CCCN(Cc2cn(-c3ccc(C)cc3)nc2-c2ccc(F)cc2)CC1 8.91 µM [inhibitor, partial curve, poor fit], COc1ccc(CCNCC(=O)Nc2ccc(OC(F)(F)F)cc2)cc1OC 14.1 µM [inhibitor, single point], COc1cc(OC)cc(C(=O)N[C@H](C(=O)NCc2ccc(F)cc2)C(C)C)c1 11.2 µM [inhibitor, single point], O=C(c1cccc(C(F)(F)F)c1)C1CCCN(Cc2cccn2-c2ccccn2)C1 (stereo not given) 10 µM [inhibitor, single point], O=C(Nc1ccc2c(c1)OCO2)c1cc(C2CCCCN2C(=O)CCc2ccccc2)on1 (stereo not given) 28.2 µM [inhibitor, single point], C/C(=N/Nc1ccnc2cc(Cl)ccc12)c1ccc(N)cc1 15.8 µM [inhibitor, single point], CC(NC(=O)CN(c1cccc(C(F)(F)F)c1)S(=O)(=O)c1ccc(Cl)c([N+](=O)[O-])c1)c1ccccc1 (stereo not given) 11.2 µM [inhibitor, partial curve, poor fit], Cc1cccn2c(/C=N/OCc3cccc(F)c3)c(-c3ccc(Cl)cc3)nc12 1.26 µM [inhibitor, partial curve, poor fit], CCCCCCCCCCOC(=O)C[N+](C)(C)C/C=C(/C)Cl 4.47 µM [inhibitor, partial curve, poor fit], O=C(/C=C/c1cccc(Br)c1)NCC1CCCCC1 14.1 µM [inhibitor, single point], Cc1ccc(S(=O)(=O)N(CC2CO2)c2cccc([N+](=O)[O-])c2)cc1 (stereo not given) 12.6 µM [inhibitor, single point], Cc1ccc(S(=O)(=O)N(C)C[C@@H]2Oc3ccc(NC(=O)CCC(F)(F)F)cc3CC(=O)N([C@@H](C)CO)C[C@@H]2C)cc1 2.51 µM [inhibitor, full curve, poor fit], CN(C)CCOC(=O)NCC12CC3CC(CC(C3)C1)C2 3.55 µM [inhibitor, full curve, poor fit], CC(O)(c1ccccc1)c1nc(-c2csc3ccccc23)cs1 (stereo not given) 20 µM [inhibitor, single point], O=C(/C=C/c1cccs1)N1CCC2(CC1)Oc1ccc(Cl)cc1C(=O)C21CC(c2cccnc2)=NO1 (stereo not given) 6.31 µM [inhibitor, partial curve, poor fit], CCC1=NN(C(=O)c2ccc(Cl)cc2)C(O)(c2ccccc2)C1 (stereo not given) 1.78 µM [inhibitor, full curve, poor fit], CN(CC(=O)Nc1ccc(Cl)cc1)C(=O)CCc1c[nH]c2ccccc12 8.91 µM [inhibitor, partial curve, poor fit], O=C(OCc1cccs1)c1ccccc1NS(=O)(=O)c1ccc2c(c1)OCCO2 11.2 µM [inhibitor, single point], Cc1cccc2nc(-c3cccc(NC(=O)c4ccc(Cl)cc4)c3)cn12 12.6 µM [inhibitor, single point], Cc1cccc(NC(=O)C2C3C=CC(C4CC34)C2C(=O)O)c1 (stereo not given) 22.4 µM [inhibitor, single point], Cc1cc(NC(=O)c2cn(C3CCCCC3)c(=O)c3c2c2ccccc2n3C)no1 20 µM [inhibitor, single point], COc1cccc2sc3cc(C#CC4(O)CCCCC4)ccc3c(=O)c12 15.8 µM [inhibitor, single point], CCOC(=O)c1c(CN(C)C)oc2cc(CN(C)C)c(O)c(CSc3ccccc3)c12 6.31 µM [inhibitor, partial curve, poor fit], CC(=O)c1ccc(-c2cnc3c(NC=O)cc(-c4ccc(C(=O)N5CCOCC5)cc4)cn23)cc1 10 µM [inhibitor, partial curve, poor fit], CC1(c2cccc(Br)c2)NC(=O)N(CC(=O)NCCC2=CCCCC2)C1=O (stereo not given) 10 µM [inhibitor, single point]
